Read-outs that look alike come from different tables or passages of the source.
What was measured:
[1] = tested on: GLAST and GLT-1 glutamate transporters; assay: whole cell patch clamp recording of glutamate transporter currents in cultured oligodendrocytes; format: cell-based, rat; settings: for permanent, non-desensitizing current, mean amplitude: oligodendrocytes, voltage clamp at −70 mV
Protocol: Electrophysiological recordings were carried out on 2 to 5 days-old cultures, following previously published protocols (Patneau et al., 1994, Neuron 12, 357-371). Cells were registered in a chamber which allows changing the composition of the extracellular medium by means of constant flow (0.5 to 1 ml/minute). Registering electrodes used were glass capillaries containing specific solutions compatible with cytoplasmic ionic concentrations. The study of the responses mediated by the glutamate transporters was carried out using whole cell patch clamp.

[2] = tested on: GLAST and GLT-1 glutamate transporters; format: cell-based, rat
From the text: In order to characterize the subtype of transporter, tritiated glutamate uptake assays and immunocytochemistry were used.

EAAT1 (GLAST) = assay: expression in isolated optic nerve after stimulation with glutamate; set-up: species or system rat; settings: glutamate 1 mM, 3 hours of incubation
EAAT2 (GLT-1) = assay: as above; set-up: species or system rat; settings: glutamate 1 mM, 3 hours of incubation
oligodendrocytes = assay: oligodendroglial death in vitro after inhibition of glutamate transporters; format: cell-based, rat
Protocol: Cell cultures were prepared from 12 days-old rat optic nerve following standard protocols, which have been adapted and introduced into the laboratory as recently reported (Matute et al., 1997, Proc. Natl. Acad. Sci. USA 94: 8830-8835).

[3] = tested on: whole optic nerves isolated from adult rats; assay: oligodendrocyte death (chromatin condensation, caspase-3) in isolated optic nerve in situ
[4] = tested on: whole optic nerves isolated from adult rats; assay: extracellular glutamate levels in isolated optic nerve perfused with transporter inhibitor; set-up: species or system rat
Protocol: In order to determine if the inhibition of glutamate transporters is toxic for oligodendrocytes in a preparation of in situ nervous tissue, whole optic nerves isolated from adult rats were perfused with TBOA in aCSF for 6 hours.

How did the “permanent, non-desensitizing current, mean amplitude” value [1] turn out when `N[C@@H](CC(=O)O)C(=O)O` [aspartate] was run?
The value was 14.26±2.41 pA.

`CC(C)[C@H]1CN[C@H](C(=O)O)[C@H]1CC(=O)O` [DHK, dihydrokainate] was tested. Which “effect on sodium-dependent uptake of glutamate in oligodendrocytes” value ([2]; tritiated glutamate uptake) did it give?
Its value is “only partially inhibited”.

What does the source list for `N[C@@H](CCC(=O)O)C(=O)O` [glutamate]?
expression of EAAT1 (GLAST) transporter (EAAT1 (GLAST)): increase; expression of EAAT2 (GLT-1) transporter (EAAT2 (GLT-1)): increase; permanent, non-desensitizing current, mean amplitude [1]: 16.54±1.66 pA

With `N#Cc1cc2c(cc1[N+](=O)[O-])=NC(=O)C(=O)N=2` [CNQX, 6-cyano-7-nitroquinoxalin-2,3-dione] as the compound, how does the “effect on TBOA-induced oligodendroglial death” value (oligodendrocytes; CNQX 30 μM) read?
Its value is “blocked”.

And the “effect on TBOA-induced oligodendrocyte death in optic nerve” value ([3]; incubation with TBOA in the presence of CNQX 30 μM)?
The value was “prevents oligodendrocyte death”.

For `NS(=O)(=O)c1cc2c(cc1Cl)NC(C1CC3C=CC1C3)NS2(=O)=O` (stereo not shown) [cyclothiazide], which “effect on TBOA-induced oligodendroglial death” value (oligodendrocytes; CTZ 100 μM) is on record?
The value was “enhanced”.

Which “extracellular levels of glutamate” value ([4]; maximal concentration of TBOA, 6 hours) does the source give for `N[C@H](C(=O)O)[C@H](OCc1ccccc1)C(=O)O` (racemic) [TBOA, DL-threo-β-benzyloxyaspartate] here?
The value was “doubled”.

What about the EC50 ([4]; perfusion in aCSF for 6 hours, read-out: increase of extracellular levels of glutamate EC50) of the same compound?
The EC50 was 78.2 µM.

And the EC50 (oligodendrocytes; TBOA 100 nM to 1 mM, 24 h, alone)?
The EC50 was 10.9 µM.

What about the “chromatin condensation and caspase-3 activation in dying oligodendrocytes” value (oligodendrocytes; TBOA alone or in the presence of CTZ (100 μM) or ConA (10 μM)) of the same compound?
The value was “produces chromatin condensation and activation of caspase-3”.

And the EC50 (oligodendrocytes; TBOA in the presence of cyclothiazide (CTZ; 100 μM))?
The EC50 was 5.5 µM.

What about the “effect on sodium-dependent uptake of glutamate in oligodendrocytes” value [2] of the same compound?
Its value is “totally inhibited”.

What about the “increase in number of cells showing chromatin condensation and activation of caspase-3 versus control nerves” value ([3]; perfusion in aCSF for 6 hours) of the same compound?
Its value is > 3 fold.

And the EC50 ([3]; read-out: cells showing chromatin condensation and activation of caspase-3, EC50, perfusion in aCSF for 6 hours)?
Its EC50 is 113 µM.

And the “effect on currents induced by glutamate or aspartate” value ([1]; TBOA 1 mM)?
The value was “inhibited”.

Which “effect on TBOA-induced oligodendroglial death” value (oligodendrocytes; LY303070 50 μM) does the source give for `CNC(=O)N1N=C(c2ccc(N)cc2)c2cc3c(cc2C[C@H]1C)OCO3` [LY303070] here?
The value was “reduced to a large extent”.

With concanavalin A as the compound, how does the “effect on TBOA-induced oligodendroglial death” value (oligodendrocytes; ConA 10 μM) read?
Its value is “enhanced”.
